Assay results taken from paper PMC6941957.
Where two headings read alike, the source gives them in different places. Results are given in words; binding and its absence hold for the method and conditions named. In cells and extracts the contact can be indirect. Some binding calls cover weakened binding; strength is not graded here. For some assays here: Tags and fused reporters may be left off the sequences shown. Blank lines part the entries; values can stand above or below the molecule they belong to.

By UniProt entry, the sequences of proteins in these tests, tags left out.
UniProt Q8CJ19: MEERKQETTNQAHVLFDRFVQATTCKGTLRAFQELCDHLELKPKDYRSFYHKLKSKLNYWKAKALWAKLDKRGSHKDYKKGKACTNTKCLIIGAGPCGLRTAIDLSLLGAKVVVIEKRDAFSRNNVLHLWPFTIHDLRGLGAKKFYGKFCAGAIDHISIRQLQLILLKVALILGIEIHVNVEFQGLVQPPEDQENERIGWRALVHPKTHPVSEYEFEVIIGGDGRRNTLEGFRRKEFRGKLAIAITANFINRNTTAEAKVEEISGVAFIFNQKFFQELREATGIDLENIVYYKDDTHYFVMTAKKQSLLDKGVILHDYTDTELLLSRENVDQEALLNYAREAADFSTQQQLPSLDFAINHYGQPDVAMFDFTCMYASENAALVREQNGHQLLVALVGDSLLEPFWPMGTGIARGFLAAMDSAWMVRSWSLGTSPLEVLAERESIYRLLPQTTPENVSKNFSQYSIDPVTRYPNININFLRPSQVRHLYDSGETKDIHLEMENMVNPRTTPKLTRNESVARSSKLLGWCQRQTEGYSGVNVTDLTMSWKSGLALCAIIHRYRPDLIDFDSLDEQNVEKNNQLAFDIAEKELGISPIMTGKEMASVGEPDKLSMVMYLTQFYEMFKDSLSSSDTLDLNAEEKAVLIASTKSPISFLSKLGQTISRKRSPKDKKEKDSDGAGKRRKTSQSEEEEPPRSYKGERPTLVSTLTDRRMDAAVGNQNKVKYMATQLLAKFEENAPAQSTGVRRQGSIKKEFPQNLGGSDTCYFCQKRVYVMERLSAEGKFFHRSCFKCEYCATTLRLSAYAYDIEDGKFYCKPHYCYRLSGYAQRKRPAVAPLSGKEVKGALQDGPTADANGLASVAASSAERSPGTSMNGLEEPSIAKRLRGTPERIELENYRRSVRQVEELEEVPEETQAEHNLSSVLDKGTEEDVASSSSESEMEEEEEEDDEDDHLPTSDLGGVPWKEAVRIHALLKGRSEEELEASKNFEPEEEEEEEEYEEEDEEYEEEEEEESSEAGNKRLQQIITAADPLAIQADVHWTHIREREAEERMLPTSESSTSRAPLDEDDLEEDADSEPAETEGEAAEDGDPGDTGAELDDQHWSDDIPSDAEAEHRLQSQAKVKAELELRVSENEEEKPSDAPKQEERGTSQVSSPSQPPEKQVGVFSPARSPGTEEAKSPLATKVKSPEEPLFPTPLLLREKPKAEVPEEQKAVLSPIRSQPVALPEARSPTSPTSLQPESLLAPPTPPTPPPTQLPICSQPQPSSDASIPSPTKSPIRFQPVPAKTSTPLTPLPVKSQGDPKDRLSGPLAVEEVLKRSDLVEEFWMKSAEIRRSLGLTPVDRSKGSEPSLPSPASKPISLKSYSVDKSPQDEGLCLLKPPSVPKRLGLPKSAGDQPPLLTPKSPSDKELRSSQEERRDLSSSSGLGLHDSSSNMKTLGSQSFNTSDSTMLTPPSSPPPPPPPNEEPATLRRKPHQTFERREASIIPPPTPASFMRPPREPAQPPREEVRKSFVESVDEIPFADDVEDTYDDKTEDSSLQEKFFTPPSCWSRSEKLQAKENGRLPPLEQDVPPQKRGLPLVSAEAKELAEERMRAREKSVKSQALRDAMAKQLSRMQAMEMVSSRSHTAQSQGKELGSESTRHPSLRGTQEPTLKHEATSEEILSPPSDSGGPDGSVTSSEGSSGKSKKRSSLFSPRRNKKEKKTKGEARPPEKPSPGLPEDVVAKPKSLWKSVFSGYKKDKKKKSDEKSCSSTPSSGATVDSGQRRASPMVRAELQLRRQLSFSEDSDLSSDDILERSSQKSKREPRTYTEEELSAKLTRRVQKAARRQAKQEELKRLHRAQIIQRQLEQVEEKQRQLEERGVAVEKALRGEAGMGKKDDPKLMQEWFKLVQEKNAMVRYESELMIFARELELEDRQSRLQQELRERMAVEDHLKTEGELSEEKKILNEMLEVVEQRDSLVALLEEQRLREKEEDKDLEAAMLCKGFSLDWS
UniProt O70511: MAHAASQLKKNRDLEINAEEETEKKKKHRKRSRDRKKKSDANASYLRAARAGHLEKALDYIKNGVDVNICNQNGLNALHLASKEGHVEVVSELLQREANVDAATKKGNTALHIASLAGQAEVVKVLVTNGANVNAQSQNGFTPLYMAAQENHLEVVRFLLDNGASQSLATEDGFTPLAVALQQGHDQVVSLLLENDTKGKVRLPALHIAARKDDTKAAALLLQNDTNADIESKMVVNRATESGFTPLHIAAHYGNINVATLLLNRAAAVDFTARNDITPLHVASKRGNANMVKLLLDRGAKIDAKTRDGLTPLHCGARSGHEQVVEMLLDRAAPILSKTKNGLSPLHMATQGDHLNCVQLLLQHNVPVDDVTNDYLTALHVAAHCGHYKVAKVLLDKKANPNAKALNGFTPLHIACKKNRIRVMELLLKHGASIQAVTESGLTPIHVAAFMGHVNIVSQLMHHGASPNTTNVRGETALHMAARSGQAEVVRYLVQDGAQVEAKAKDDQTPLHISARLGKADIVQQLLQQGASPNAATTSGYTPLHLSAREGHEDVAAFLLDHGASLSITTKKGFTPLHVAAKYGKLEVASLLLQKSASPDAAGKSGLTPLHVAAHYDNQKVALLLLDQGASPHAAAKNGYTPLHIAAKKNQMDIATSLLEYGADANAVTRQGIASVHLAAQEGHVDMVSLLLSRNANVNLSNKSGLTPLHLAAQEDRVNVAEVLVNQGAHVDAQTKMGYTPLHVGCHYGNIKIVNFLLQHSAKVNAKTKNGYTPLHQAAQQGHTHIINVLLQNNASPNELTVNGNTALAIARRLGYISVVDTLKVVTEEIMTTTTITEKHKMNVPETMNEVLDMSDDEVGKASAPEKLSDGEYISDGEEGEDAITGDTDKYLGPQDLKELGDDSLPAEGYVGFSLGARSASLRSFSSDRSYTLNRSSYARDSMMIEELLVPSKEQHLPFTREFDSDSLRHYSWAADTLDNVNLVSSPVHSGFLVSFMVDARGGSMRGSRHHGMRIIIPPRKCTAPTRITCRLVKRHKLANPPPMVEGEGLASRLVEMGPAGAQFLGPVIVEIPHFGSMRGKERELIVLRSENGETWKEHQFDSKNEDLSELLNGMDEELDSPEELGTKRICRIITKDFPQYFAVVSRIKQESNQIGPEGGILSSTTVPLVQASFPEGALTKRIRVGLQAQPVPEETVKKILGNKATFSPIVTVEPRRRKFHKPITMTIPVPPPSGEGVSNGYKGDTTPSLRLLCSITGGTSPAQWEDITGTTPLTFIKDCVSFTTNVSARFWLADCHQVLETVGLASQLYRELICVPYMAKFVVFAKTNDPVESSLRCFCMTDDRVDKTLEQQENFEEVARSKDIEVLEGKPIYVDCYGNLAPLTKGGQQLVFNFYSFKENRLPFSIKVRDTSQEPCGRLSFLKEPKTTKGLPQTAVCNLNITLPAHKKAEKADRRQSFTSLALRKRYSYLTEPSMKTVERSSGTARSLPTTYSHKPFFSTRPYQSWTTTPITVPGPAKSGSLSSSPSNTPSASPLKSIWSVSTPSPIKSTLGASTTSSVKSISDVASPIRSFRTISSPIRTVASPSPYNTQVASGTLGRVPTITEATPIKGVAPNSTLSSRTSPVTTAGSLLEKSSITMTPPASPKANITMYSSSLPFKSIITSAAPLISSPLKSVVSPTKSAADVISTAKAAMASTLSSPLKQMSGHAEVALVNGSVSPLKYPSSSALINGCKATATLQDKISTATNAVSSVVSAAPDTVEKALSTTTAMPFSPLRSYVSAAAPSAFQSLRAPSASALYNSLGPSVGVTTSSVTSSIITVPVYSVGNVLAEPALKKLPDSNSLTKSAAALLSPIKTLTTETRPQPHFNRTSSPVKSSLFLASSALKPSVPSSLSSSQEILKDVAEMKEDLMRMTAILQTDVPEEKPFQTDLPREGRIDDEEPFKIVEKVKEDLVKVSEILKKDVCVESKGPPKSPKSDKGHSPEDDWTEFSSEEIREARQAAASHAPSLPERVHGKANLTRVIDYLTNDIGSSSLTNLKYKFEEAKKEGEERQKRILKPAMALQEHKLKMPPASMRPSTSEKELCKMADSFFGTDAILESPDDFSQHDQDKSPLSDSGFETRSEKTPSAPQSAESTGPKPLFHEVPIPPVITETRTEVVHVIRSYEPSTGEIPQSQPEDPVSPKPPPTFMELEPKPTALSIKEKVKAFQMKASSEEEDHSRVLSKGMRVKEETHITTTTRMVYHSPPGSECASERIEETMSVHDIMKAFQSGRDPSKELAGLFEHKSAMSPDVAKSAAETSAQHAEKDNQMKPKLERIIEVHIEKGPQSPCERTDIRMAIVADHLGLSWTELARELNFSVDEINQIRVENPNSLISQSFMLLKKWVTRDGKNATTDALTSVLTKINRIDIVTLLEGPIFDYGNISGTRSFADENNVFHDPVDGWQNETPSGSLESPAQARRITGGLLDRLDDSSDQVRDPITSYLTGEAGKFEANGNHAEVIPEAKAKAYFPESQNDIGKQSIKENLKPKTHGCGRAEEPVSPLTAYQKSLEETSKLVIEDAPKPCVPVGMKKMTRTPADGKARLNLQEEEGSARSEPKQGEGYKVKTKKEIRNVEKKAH
UniProt P61028: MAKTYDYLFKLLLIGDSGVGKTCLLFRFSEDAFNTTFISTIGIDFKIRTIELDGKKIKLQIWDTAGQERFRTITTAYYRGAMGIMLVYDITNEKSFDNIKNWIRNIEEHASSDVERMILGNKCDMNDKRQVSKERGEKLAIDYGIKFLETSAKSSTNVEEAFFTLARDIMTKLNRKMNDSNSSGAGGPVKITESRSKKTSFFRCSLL
UniProt P55258: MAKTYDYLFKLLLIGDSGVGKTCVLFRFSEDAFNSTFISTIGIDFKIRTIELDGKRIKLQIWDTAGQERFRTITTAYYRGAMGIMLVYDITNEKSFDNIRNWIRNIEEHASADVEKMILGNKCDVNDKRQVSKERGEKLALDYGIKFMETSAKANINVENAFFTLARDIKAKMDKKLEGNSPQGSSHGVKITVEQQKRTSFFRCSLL
UniProt Q6PHN9: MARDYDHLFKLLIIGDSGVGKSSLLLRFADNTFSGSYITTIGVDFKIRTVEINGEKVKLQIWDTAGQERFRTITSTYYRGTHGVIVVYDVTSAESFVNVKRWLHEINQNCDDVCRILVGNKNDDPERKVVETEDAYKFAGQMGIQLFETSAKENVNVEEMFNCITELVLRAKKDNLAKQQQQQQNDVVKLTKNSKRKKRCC

Key:
[1] = target: Mouse Mical3-6xMyc (mouse) (UniProt Q8CJ19); test: co-IP; 'in vitro co-immunoprecipitation': HEK293T cells transfected 48 h, lysed in RIPA or lysis buffer (50 mM Tris-HCl pH 8.0, 150 mM NaCl, 1 mM EDTA, 0.1% Triton X-100), protein G resin with primary antibody, immunoblot
AnkG-GFP = AnkG-GFP (UniProt O70511); test: as above
[2] = target: T1, NF186 (in vitro co-immunoprecipitation) (rat) (UniProt P97685); test: as above
T1 sequence: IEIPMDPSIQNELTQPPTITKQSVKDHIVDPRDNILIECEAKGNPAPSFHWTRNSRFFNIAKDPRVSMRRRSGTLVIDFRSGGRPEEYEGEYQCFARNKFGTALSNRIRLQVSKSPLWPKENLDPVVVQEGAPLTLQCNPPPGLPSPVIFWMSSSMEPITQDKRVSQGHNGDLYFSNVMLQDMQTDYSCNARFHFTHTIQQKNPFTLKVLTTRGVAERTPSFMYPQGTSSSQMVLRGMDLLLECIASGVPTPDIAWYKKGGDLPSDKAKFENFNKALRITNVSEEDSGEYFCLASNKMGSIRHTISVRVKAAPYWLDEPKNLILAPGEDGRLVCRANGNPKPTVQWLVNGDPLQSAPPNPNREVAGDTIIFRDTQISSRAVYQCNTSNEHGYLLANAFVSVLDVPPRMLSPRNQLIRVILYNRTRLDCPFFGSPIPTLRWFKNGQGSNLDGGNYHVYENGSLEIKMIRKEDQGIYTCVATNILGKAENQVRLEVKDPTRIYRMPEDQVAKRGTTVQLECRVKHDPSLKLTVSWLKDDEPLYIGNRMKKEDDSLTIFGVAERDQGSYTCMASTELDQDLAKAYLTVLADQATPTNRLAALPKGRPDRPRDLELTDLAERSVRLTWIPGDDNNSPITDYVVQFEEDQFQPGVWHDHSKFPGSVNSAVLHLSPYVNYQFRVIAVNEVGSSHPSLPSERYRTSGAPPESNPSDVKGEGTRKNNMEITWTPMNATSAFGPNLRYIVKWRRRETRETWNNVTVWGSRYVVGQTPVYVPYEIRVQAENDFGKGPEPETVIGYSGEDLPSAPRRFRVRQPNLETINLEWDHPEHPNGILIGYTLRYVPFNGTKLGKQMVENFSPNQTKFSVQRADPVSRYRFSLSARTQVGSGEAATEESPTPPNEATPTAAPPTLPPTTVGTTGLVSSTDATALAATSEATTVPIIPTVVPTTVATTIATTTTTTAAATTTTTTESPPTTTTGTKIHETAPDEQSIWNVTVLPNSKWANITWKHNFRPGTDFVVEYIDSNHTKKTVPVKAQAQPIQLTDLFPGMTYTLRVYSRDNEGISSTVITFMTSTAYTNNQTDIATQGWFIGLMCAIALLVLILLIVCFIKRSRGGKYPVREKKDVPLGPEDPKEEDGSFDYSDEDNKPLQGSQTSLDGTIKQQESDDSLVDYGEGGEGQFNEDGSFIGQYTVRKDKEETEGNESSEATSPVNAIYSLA

α2-spectrin-GFP = α2-spectrin-GFP (UniProt Q13813); test: as above
[3] = target: GST-α2 spectrin (AA 572-1338) (UniProt Q13813); test: pull-down; HEK293T co-transfected with Mical3-myc and α2 spectrin GST fusion protein, lysis in 150 mM NaCl, 20 mM Tris-HCl pH 8.0, 10 mM EDTA, 1% Triton X-100; glutathione sepharose 4B beads overnight at 4 °C; blots with anti-myc and anti-GST
Sept5-FLAG (mouse) = target: T2, Sept5-FLAG (mouse) (UniProt Q9Z2Q6); test: co-IP; 'in vitro co-immunoprecipitation': HEK293T cells transfected 48 h, lysed in RIPA or lysis buffer (50 mM Tris-HCl pH 8.0, 150 mM NaCl, 1 mM EDTA, 0.1% Triton X-100), protein G resin with primary antibody, immunoblot
T2 sequence: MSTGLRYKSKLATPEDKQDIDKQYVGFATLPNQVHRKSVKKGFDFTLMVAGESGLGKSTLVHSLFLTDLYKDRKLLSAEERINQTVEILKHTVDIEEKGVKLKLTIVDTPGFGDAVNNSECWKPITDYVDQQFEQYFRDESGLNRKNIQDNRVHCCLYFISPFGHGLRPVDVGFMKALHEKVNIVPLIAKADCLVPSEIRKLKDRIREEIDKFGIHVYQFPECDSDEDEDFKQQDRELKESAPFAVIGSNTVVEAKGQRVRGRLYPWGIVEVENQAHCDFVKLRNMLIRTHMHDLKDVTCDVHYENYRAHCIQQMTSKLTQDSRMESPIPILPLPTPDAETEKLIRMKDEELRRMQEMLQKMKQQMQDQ

Sept6-FLAG (mouse) = target: T3, Sept6-FLAG (mouse) (UniProt Q9R1T4); test: as above
T3 sequence: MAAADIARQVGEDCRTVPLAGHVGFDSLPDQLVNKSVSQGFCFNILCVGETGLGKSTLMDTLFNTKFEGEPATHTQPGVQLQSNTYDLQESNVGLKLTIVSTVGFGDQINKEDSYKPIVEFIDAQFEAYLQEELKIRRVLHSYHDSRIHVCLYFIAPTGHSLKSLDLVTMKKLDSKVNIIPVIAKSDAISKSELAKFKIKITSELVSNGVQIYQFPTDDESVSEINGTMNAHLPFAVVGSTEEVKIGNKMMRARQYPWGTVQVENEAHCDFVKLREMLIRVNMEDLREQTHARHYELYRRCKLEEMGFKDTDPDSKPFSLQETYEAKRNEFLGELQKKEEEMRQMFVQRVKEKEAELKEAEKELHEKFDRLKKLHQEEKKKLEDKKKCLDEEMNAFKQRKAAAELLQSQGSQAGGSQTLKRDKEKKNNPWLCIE

[4] = target: Mical3 (endogenous, mouse brain) (mouse (endogenous in brain)) (UniProt Q8CJ19); test: co-IP; mouse brain homogenate lysed in RIPA buffer, protein G resin with anti-Mical3, immunoblot
[5] = target: Mouse Mical3-6xMyc (mouse) (UniProt Q8CJ19); test: co-IP; 'in vitro co-immunoprecipitation': HEK293T cells transfected 48 h, lysed in RIPA or lysis buffer (50 mM Tris-HCl pH 8.0, 150 mM NaCl, 1 mM EDTA, 0.1% Triton X-100), protein G resin with primary antibody, immunoblot; remark: listed apart in the source

Molecule: Rab8b-tRFP (from UniProt P61028 1-207)
binding [1]: binds

Molecule: Rab8a-tRFP (from UniProt P55258 1-207)
binding [1]: binds

Molecule: Rab35-tRFP (from UniProt Q6PHN9 1-201)
binding [1]: no binding

Molecule: α2 spectrin (endogenous, mouse brain) (from UniProt P16546 1-2472)
binding [4]: binds

More lines, now with the values ahead:

binding (AnkG-GFP): no binding
binding [2]: no binding
binding (α2-spectrin-GFP): binds
binding [3]: binds
Molecule: Mouse Mical3-6xMyc (from UniProt Q8CJ19 1-1993)

binding (Sept5-FLAG (mouse)): binds
binding (Sept6-FLAG (mouse)): binds
Molecule: AnkG-GFP (from UniProt O70511 1-2622)

binding [5]: binds
B1: Rab36-tRFP (protein, UniProt Q8CAM5 1-267)
chain: MRSSWTPLGPPVSQDRIITSFPKWYTPDACLQLKEHFHSRVSTACQHRNTGTAGLRLSKVVVVGDLYVGKTSLIHRLCKNVFDHDYKATIGVDFEIERFEIAGIPYSLQIWDTAGQEKFKCIASAYYRGAQVIITAFDLTDVQTLEHTRQWLEDVLRENEAGSCFIFLVGTKKDLLSGAACEQAEAEAVHLANEMQAEYWSVSAKTGENVKAFFSRVAALAFEQSVLQDLEKRPSTQSQVGDGDGDLIRIEVPKTQENKRPPGLGCC
